# This is one part of the list. Sequences were assembled here from the parent chain. Values near 0.05 are background.
# B1: TEV protease; numbered along this chain (parent)
# chain: MGESLFKGPRDYNPISSSICHLTNESDGHTTSLYGIGFGPFIITNKHLFRRNNGTLVVQSLHGVFKVKDTTTLQQHLVDGRDMIIIRMPKDFPPFPQKLKFREPQREERICLVTTNFQTKSMSSMVSDTSCTFPSGDGIFWKHWIQTKDGQCGSPLVSTRDGFIVGIHSASNFTNTNNYFTSVPKNFMELLTNQEAQQWVSGWRLNADSVLWGGHKVFMVKPEEPFQPVKEATQL
# Variants of: B1
# Assay: raw area under fraction-flipped curve 0-4 h after induction (AUC4h, not background-subtracted), DNA-recorder readout of cleavage of the substrate (dimensionless); higher = more cleavage of the substrate by the protease variant
# Conditions: temperature: 34 °C; time window: 0-4 h after rhamnose induction
# Experimental: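 In vivo DNA recorder in E. coli TOP10(DE3) ΔrhaA at 34 °C. Each TEVp single-site mutant (parent TEVp 0) is paired with a single-site variant of the 7-mer TEVs (canonical ENLYFQ|S). The substrate sits between flexible linkers in a Bxb1-sfGFP-TEVs-SsrA fusion, so cleavage stabilises Bxb1 and speeds flipping of a recombination array, read by NGS. The value is the raw area under the fraction-flipped curve over 0-4 h after rhamnose induction (AUC4h), with ≥20 reads per time point. It is not background-subtracted; inactive controls average about 0.047.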
# 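Note: Bxb1 expression induced with 0.2% (w/v) L-rhamnose at OD600 near 0.5, cultures sampled hourly, flipped fraction per protease–substrate barcode pair counted by paired-end Illumina sequencing.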
Variant,area with substrate EALYFQS,area with substrate EQLYFQS,area with substrate EVLYFQS,area with substrate ECLYFQS,area with substrate EGLYFQS,area with substrate EHLYFQS,area with substrate EILYFQS,area with substrate EKLYFQS,area with substrate ESLYFQS,area with substrate ETLYFQS,area with substrate EWLYFQS,area with substrate EELYFQS,area with substrate EFLYFQS,area with substrate ELLYFQS,area with substrate EMLYFQS,area with substrate ERLYFQS,area with substrate EYLYFQS,area with substrate EDLYFQS,area with substrate EPLYFQS
F187C,0.143,0.135,0.0755,–,–,–,–,–,–,–,–,–,–,–,–,–,–,–,–
F187N,0.0386,0.0386,0.0507,0.0496,0.0905,0.0619,0.0479,0.0537,0.0578,0.0451,0.0676,–,–,–,–,–,–,–,–
V165S,0.0529,0.0739,0.0449,0.0459,0.0571,0.0526,–,0.0525,0.0437,–,0.0526,0.0564,0.0448,0.0383,0.0477,0.0371,0.0413,–,–
V165F,0.0445,0.0301,–,0.0541,–,0.0532,0.0462,–,0.0552,0.0571,–,–,–,–,0.0738,–,0.0397,0.0541,–
Q151C,0.0833,0.0832,0.0704,0.0822,0.0755,0.0932,0.0791,0.0857,0.0826,–,0.0504,0.129,0.0775,0.079,0.0887,0.118,0.0697,0.0931,–
Q151W,0.0967,0.107,0.0955,0.0899,0.072,0.102,0.0667,0.0877,0.0802,–,0.0864,0.078,0.0814,0.0824,0.092,0.0635,0.0712,0.105,–
T176W,0.0796,0.0731,0.0552,0.0752,0.0458,–,0.0466,–,0.0602,0.0591,–,0.0548,0.0725,–,–,0.073,0.0665,0.0703,–
S169R,0.0386,–,0.0636,0.0622,–,0.0428,0.0541,0.06,0.0471,–,0.058,–,–,0.069,0.0506,0.0402,–,0.0507,0.0721
A207Y,0.0927,0.126,0.0761,–,–,–,0.0843,–,0.098,–,–,0.111,–,0.08,0.102,0.0909,0.132,0.104,0.0701
A207E,0.142,–,0.113,0.123,–,–,–,0.144,0.161,–,–,0.125,0.0964,–,–,–,–,0.0768,–
L211V,0.108,0.124,–,0.1,–,–,0.0759,–,–,–,–,0.147,0.144,–,–,0.109,0.102,–,0.118
L211C,0.126,0.127,0.0977,0.105,–,0.123,0.098,–,0.0979,0.154,0.094,–,–,–,–,0.107,0.0981,–,0.127
S182A,0.146,–,–,0.136,–,–,–,0.134,0.0992,0.151,–,–,–,–,–,–,–,–,–
H215R,0.0615,0.0765,–,0.0965,0.0315,0.0868,–,0.0666,0.0725,–,0.0877,0.0805,–,–,0.0808,0.0618,–,–,–
H215E,0.072,–,0.0587,0.0567,0.0644,0.06,0.0666,0.0455,0.0679,0.0686,–,0.0692,0.0596,–,0.0614,0.0651,–,0.0666,–
T159L,0.11,0.132,0.0988,0.115,0.0815,0.129,0.098,–,0.0926,–,–,0.105,–,–,–,0.113,0.144,–,0.0983
L156V,0.108,0.13,0.111,–,0.0896,0.124,0.0938,0.133,0.102,0.121,0.0957,0.0806,–,0.106,0.12,0.0964,0.112,0.0814,0.154
L156D,0.0288,0.0501,0.0636,0.0479,0.0324,–,0.0443,0.0647,0.0475,–,0.0469,0.107,0.0525,0.0559,0.0597,–,–,–,–
L156I,0.134,–,0.0887,–,–,–,0.0922,0.0917,0.0918,–,0.106,–,–,0.0976,0.0922,0.0794,–,0.114,0.093
S201I,0.131,0.0939,0.0753,0.0978,–,–,0.098,0.114,–,–,0.0947,0.112,0.0893,–,0.0994,0.105,0.077,–,–
S201L,0.105,0.0851,–,0.0844,–,–,0.11,0.107,–,0.0957,0.0883,–,–,–,0.0906,–,0.0836,–,0.0897
N186W,0.111,0.102,0.101,0.0848,–,–,0.0804,0.0766,0.103,–,0.0788,0.111,–,–,0.109,–,0.0758,–,0.133
G214A,0.0924,0.0796,–,0.0828,–,0.0912,0.0819,0.0913,0.0638,–,0.0846,–,–,0.0575,0.136,0.0923,0.0608,–,0.0938
F173I,0.109,0.077,0.115,0.097,–,0.0957,0.0977,0.0967,0.114,0.104,0.138,0.133,0.12,0.136,–,0.0856,–,0.131,0.111
F173S,0.0835,–,0.0907,–,0.0734,0.0741,0.102,–,0.0626,0.0827,0.112,0.088,0.111,0.0665,0.0956,0.0853,0.0584,0.114,–
A196Q,0.137,0.143,–,0.0963,–,–,–,0.1,0.115,–,–,–,0.0658,–,0.0885,0.121,–,–,0.134
A196I,0.134,0.115,0.0939,0.0791,0.107,0.115,0.0823,0.0909,0.1,0.123,0.0967,0.127,–,–,0.107,0.112,0.117,0.118,0.11
A196M,0.127,0.148,0.138,0.0931,0.116,–,0.109,0.102,0.112,0.129,0.103,0.127,0.11,0.102,0.146,0.15,0.14,–,–

# Reference: the supplement of paper PMC12217912
